Among the data in PubChem BioAssay (NCI) are TGI and GI50 values, retold here.

Several values for one entry are separate records, joined by “and”; a condition that tells them apart may be missing. Equal values may be shown once.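 Results reflect a 48-hour exposure of cells in 96-well plates to compound at five concentrations. Abbreviation: GI50, concentration required for 50% inhibition of growth. At the TGI there is no net growth.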

This assay deals with NCI-H322M lung. Description: NCI tumour cell line growth inhibition, 48 h.
Consider `Clc1nc2n(c1/C=C/c1cccs1)CCS2`, for which the TGI is > 100 µM.
Turning to `O=[N+]([O-])c1ccc(Sc2c3ccccc3nc3ccccc23)nc1`, the TGI stood at 37.7 µM.
With `C=CCNC1=C2C[C@@H](C)C[C@@H](OC)[C@H](OC(=O)CN)[C@H](C)/C=C(\C)[C@@H](OC(N)=O)[C@H](OC)/C=C\C=C(/C)C(=O)NC(=CC1=O)C2=O`, the TGI came out at 37 µM.
In the case of `C#CCOc1cccc(Nc2ncnc3ccc(NC(=O)CCl)cc23)c1`, the GI50 is 7.48 µM and the TGI is 40.2 µM.
For `CNC1C(O)C(OC2C(N)CC(N)C(OC3OC(C(C)O)C(O)C(O)C3N)C2O)OCC1(C)O` (centres undefined), the TGI is > 100 µM.
In the case of `COc1cnc2c(c1)C(=O)c1c-2n(CCCN2CCCC2)c(=O)c2cc(F)ccc12`, the GI50 was 0.434 µM and the TGI was determined as 10.7 µM.
For the compound `COC(=O)[C@@H]1C[C@@H]2c3ccccc3N(S(=O)(=O)c3ccccc3)[C@@H]2N1C(=O)OC`, the TGI was > 100 µM.
Same read-out and setting: to `Cc1ccsc1/C=N/Nc1nncc2ccccc12` belongs > 100 µM; to `c1ccc(COCC2OC3c4ccccc4COC3C2OCc2ccccc2)cc1` (centres undefined), > 100 µM.
On the same count and under the same terms, to `NC(=Nc1ccc(O)cc1)S(=O)O` belongs > 100 µM; to `C=CCOC(=O)[C@@H]1C[C@@H](OC(C)(C)C)CN1C(=O)[C@@H]1[C@H]2OC(C)(C)O[C@H]2CN1C(=O)OCC1c2ccccc2-c2ccccc21`, 32.7 µM; to `CC(C)C1OC(/C=C/c2ccccc2)OCC1(C)C` (centres undefined), > 100 µM.
`COc1ccc(C(=O)COc2cccc(/C=C3\CSc4ccc(C)cc4C3=O)c2)cc1`: the GI50 was > 100 µM and the TGI is > 100 µM.
In the case of `CCOC(=O)c1cnc(-n2[nH]c3c(c2=O)CCCC3)[nH]c1=O`, the TGI was > 100 µM.
Regarding `CN(C)c1ccc(/C=N\N2C(=O)c3ccccc3C2=O)cc1`, the TGI is > 100 µM.
Still for that read-out and setting: to `c1ccc(-c2nnc(-c3nsc4ccccc34)o2)cc1` belongs > 100 µM; to `NC(N)=NCCCC(NC(=O)OCCCCCCn1ccc(N)nc1=O)C(=O)O` (centres undefined), > 100 µM; to `O=C1C2c3[nH]c4ccccc4c3[C@@H]3CCCCC3C2C(=O)N1c1ccccc1` (some centres undefined), > 100 µM.
Turning to `O=C1C(Cl)=C(Nc2cccc(O)c2)C(=O)N1c1ccccc1Cl`, the GI50 was 27.3 µM and the TGI was > 100 µM.
`COC(=O)c1ccccc1/C=C1\Cc2cc(C)c(C)cc2C1=O`: the TGI was > 100 µM.
Same read-out and setting: to `c1ccc(C[n+]2cccc(-c3cc4ccccc4[nH]3)c2)cc1` belongs > 100 µM.
On to `CC1=C[S+](c2ccccc2)c2cccc3cc4ccccc4c1c23` (centres undefined), for which the GI50 was 0.614 µM and the TGI is 2.51 µM.
On to `OC(c1ccccn1)C1CNc2ccccc21` (centres undefined), for which the TGI is > 100 µM.
Same read-out and setting: in the case of `O=C(/C=C/c1ccc(O)c(O)c1O)OCCc1ccccc1` it was 52.5 µM.
For `O=C(c1ccccc1)c1nc2ccc(C(F)(F)F)cc2[n+]([O-])c1C(F)(F)F`, the GI50 was > 100 µM and the TGI was > 100 µM.
Take `CCCCCCCCCCCCOC1C(CNC(=O)C2OC3OC(C)(C)OC3C2NC(=O)CN2CCCCCC2)OC2OC(C)(C)OC21` (centres undefined): the GI50 was 8.4 µM and the TGI stood at 23.4 µM.
For the compound `Cn1c2c(c3ccccc31)CC(=S)N1CCCC(CC2O)C1` (centres undefined), the TGI is > 100 µM.
In the case of `COc1ccc(Cn2cc3c(c2-c2cc(OC)c(OC)c(OC)c2)CCc2cnoc2-3)cc1[N+](=O)[O-]`, the GI50 was 3.45 µM and the TGI is > 100 µM.
On to `NC(CCOCCP(=O)(O)CCOCCC(N)C(=O)O)C(=O)O` (centres undefined), for which the TGI is > 100 µM.
On the same count and under the same terms, in the case of `COc1cc2c(cc1O)[C@@H]1Cc3c(cc(OC)c(OC)c3Oc3cc4c(cc3OC)CCN(C)[C@@H]4Cc3ccc(O)cc3)[C@H](C2)N1C` it was > 100 µM; in that of `COc1cc(O)c2c(=O)cc(C3(O)C=CC(=O)C=C3)oc2c1`, 8.32 µM; in that of `CCCCCCCCCCCCN(O)C(=O)c1ccccc1`, > 100 µM.
Take `COc1ccc(-c2ccc(/C=N/n3c(C)nn(CN4CCN(C)CC4)c3=S)o2)c([N+](=O)[O-])c1`: the GI50 was 38.3 µM and the TGI was > 100 µM.
For `CC(=O)[O][Hg][c]1ccccc1` the same measures were 1.52 µM and 3.02 µM.
Take `CCOC(=O)/C=C(/C(=O)OCC)n1ccc(=O)n(/C(=C/C(=O)OCC)C(=O)OCC)c1=O`: the TGI stood at 40.1 µM.
The same measure, in the same setting: in the case of `CCS(=O)(=O)CCn1cnc2c1c(=O)n(C)c(=O)n2C` it was > 100 µM; in that of `O=C1CC(=O)N(CCc2ccccc2)S(=O)(=O)N1CCc1ccccc1`, > 100 µM; in that of `NC(Cc1ccccc1)(C(=O)O)C(=O)O`, > 100 µM.
On to `Nc1c(C(=O)Nc2ccccc2F)sc2nc3c(cc12)C(=O)CCC3`, for which the GI50 is > 29.5 µM and the TGI is > 100 µM.
For `CCOC(=O)Nc1ccc(-c2nc(-c3cccc(OC)c3)c(-c3ccnc(Br)c3)[nH]2)cc1` the same measures were 2.46 µM and 8.38 µM.
For `COc1ccc(C(=O)c2cc3c(N)c(C(=O)Nc4cccc(Cl)c4C)sc3nc2C)cc1` the same measures were 0.142 µM and > 25 µM.
On to `O=[N+]([O-])/C(C(Cl)=C(Cl)Cl)=C(/Sc1ccccc1)N1CCCCC1`, for which the TGI was > 100 µM.
With `Cc1ccc(S(=O)(=O)NC(=O)Nc2ccc(S(N)(=O)=O)cc2S(N)(=O)=O)cc1`, the TGI was > 100 µM.
The same measure, in the same setting: in the case of `CC1OC(OC2C(O)COC(OC3C(C)OC(OC4C(OC(=O)[C@]56CCC(C)(C)C[C@@H]5C5=CCC7[C@@]8(C)C[C@H](O)[C@H](OC9OC(CO)C(O)C(OC%10OC(CO)C(O)C(O)C%10O)C9O)[C@@](C)(CO)[C@@H]8CC[C@@]7(C)[C@]5(C)CC6)OCC(O)C4O)C(O)C3O)C2O)C(O)C(O)C1O` (some centres undefined) it was 30.3 µM.
On the same count and under the same terms, in the case of `COc1cc(-c2cc(=O)c3cc(C)c(C)c(C(=O)O)c3o2)cc(OC)c1OC` it was > 100 µM; in that of `Cc1c2c(n(CCN(C)C)c1C)NN=C(C#N)S2(=O)=O`, > 100 µM.
Same read-out and setting: to `N=C(N)SCc1cccc2c(=O)cc(-c3ccccc3)oc12` belongs 25.5 µM.
Regarding `O=C1/C(=C/c2ccccc2)CN(C(=O)OCc2ccccc2)C/C1=C\c1ccccc1`, the TGI is > 31.6 µM.
Same read-out and setting: to `Cc1c(C)c(S(=O)(=O)N(CCCN)OCCCN)c(C)c2c1OC(C)(C)C2` belongs > 100 µM; to `CCOC(=O)NC(=O)c1cn(CCN2CCN(C(=O)CCCCCCCCCCNc3ncnc4nc[nH]c34)CC2)c(=O)[nH]c1=O`, > 100 µM.
For `N#Cc1ccc(C(c2ccc(C#N)cc2)n2cncn2)cc1`, the GI50 was > 5000 µM and the TGI was > 5000 µM.
On to `COc1cc(N(CCC#N)CCC#N)ccc1/C(N=Nc1ccccc1)=N/NC(=O)c1cc(Br)ccc1O`, for which the TGI was 86.5 µM.
Still for that read-out and setting: to `COC(=O)[C@@H]1C[C@H]([Se]c2ccccc2)CN1C(=O)OCc1ccccc1` belongs > 100 µM.
The same measure, in the same setting: to `NC(=O)c1[nH]cnc1/N=N/SCC(N)C(=O)O` (centres undefined) belongs > 100 µM.
Still for that read-out and setting: to `O=C(c1cccc(C(=O)c2ccc3c4c(cccc24)C(=O)N(c2ccccc2)C3=O)c1)c1ccc2c3c(cccc13)C(=O)N(c1ccccc1)C2=O` belongs > 100 µM.
For `C#Cc1cccc(Nc2nc3ccc([N+](=O)[O-])cc3nc2Nc2cccc(C#C)c2)c1`, the GI50 was 0.403 µM and the TGI was determined as 1.91 µM.
Regarding `COc1ccc(-c2cc(-c3cc(OC)c(OC)c(OC)c3)c(C#N)c(N3CCOCC3)n2)cc1O`, the GI50 is > 26.1 µM and the TGI was > 100 µM.
`CCc1nc(Cl)nc(Cl)c1Cl` had a TGI of 10.1 µM.
As for `CCCSC1=NC2C(N(CC)C(=O)N2CC)N1/N=C/C=C/c1ccccc1[N+](=O)[O-]` (centres undefined), the GI50 was 8.73 µM and the TGI was > 100 µM.
On to `Cc1ccc2[nH]c3c(ncc4[nH]c5ccccc5c43)c2c1`, for which the TGI was 30 µM.
Still for that read-out and setting: in the case of `Nc1nc(N)c2nc(CNc3ccc(C(=O)NC(CCCNC(=O)c4ccccc4C(=O)O)C(=O)O)cc3)cnc2n1` (centres undefined) it was > 100 µM; in that of `CC/C(C)=C1\OC(=O)C(C)C(O)C(Cc2cccnc2)NC(=O)C(NC(=O)c2ncccc2O)C(C)OC1=O` (centres undefined), > 100 µM; in that of `COc1ccc([C@@]23OC[C@@H]4[C@@H](OC[C@@H]42)c2cc(OC)c(OC)cc23)cc1OC`, > 100 µM.
The same measure, in the same setting: to `O=C1/C(=C/c2ccco2)N=C(c2ccccc2)N1c1cc2cc(Sc3ccccc3)ccc2[nH]1` belongs > 25 µM.
In the case of `COc1ccc(-c2csc(-c3cc(Cl)cc(Cl)c3Cl)n2)cc1`, the GI50 was > 100 µM and the TGI was > 100 µM.
Turning to `CC(=O)NNc1nc(C)c(C(/C=C/c2ccc(Cl)cc2)=N/NC(=O)C[N+](C)(C)C)s1`, the TGI was > 100 µM.
Turning to `Nc1nnc(Cn2c(-c3ccccc3)nc3ccc(Br)cc3c2=O)s1`, the GI50 was > 100 µM and the TGI was > 100 µM.
On to `O=C(O)CCCOc1cc(-c2ccccc2F)nc2cc3c(cc12)OCO3`, for which the TGI was > 100 µM.
As for `O=C(Oc1ccccc1Cl)c1ccccc1Nc1ccnc(C(F)(F)F)c1`, the GI50 is 5.22 µM and the TGI came to 19.4 µM.
For `C=C1CN(Cc2ccccc2)[C@@H]2CCCCC[C@H](C#N)[C@H]12`, the TGI is > 100 µM.
The same measure, in the same setting: in the case of `Cn1c2cc(O)cc(O)c2c(=O)c2c([N+](=O)[O-])cccc21` it was > 100 µM; in that of `COc1cc2cc(C(=O)N3CC(CCl)c4ccccc43)[nH]c2c(OC)c1OC` (centres undefined), > 100 µM.
Regarding `COc1cc2c(cc1OC)C(=O)C(C1=C(SC(=N)N)C(=O)c3cc(OC)c(OC)cc31)C2` (centres undefined), the TGI was > 100 µM.
Turning to `C=C(Cl)C(=C)CCC(Cl)C(C)C` (centres undefined), the TGI is > 100 µM.
The same measure, in the same setting: to `Cn1c2c(c3ccccc31)CCN(CCCCN1CCN(c3cccc(Cl)c3)CC1)C2=O` belongs 31.7 µM; to `N#CC1(C=O)c2ccccc2C=CN1C(=O)c1ccccc1` (centres undefined), > 100 µM.
Regarding `CCCCCCCC(=O)SCC/C=C/[C@@H]1CC(=O)NCc2nc(co2)C2=N[C@@](C)(CS2)C(=O)N[C@@H](C(C)C)C(=O)O1`, the GI50 was 0.0346 µM.
Turning to `O=C(Nc1ccccc1F)c1cc2ccc(O)cc2oc1=Nc1cccc(C(F)(F)F)c1`, the TGI came out at 10.9 µM.
Still for that read-out and setting: in the case of `CC(=O)Nc1ccc(C(=O)NN2C(=O)C(Cl)C2c2ccccc2O)cc1` (centres undefined) it was > 100 µM.
Still for that read-out and setting: in the case of `Cc1ccc(/C=C/C(=O)c2cc(CN(C)C)c(O)c(CN(C)C)c2)cc1` it was 59.2 µM; in that of `C=CCN(C)CN(C)c1nc(N(C)C)nc(N(C)C)n1`, > 100 µM.
In the case of `COc1ccccc1S(=O)(=O)Nc1ccc2c(c1)CN(C)C(=O)N2`, the GI50 is 6.31 µM and 5.49 µM; the TGI is > 100 µM.
In the case of `OC1CN2Cc3cc4c(cc3[C@]13C=C[C@@H](O)CC23)OCO4` (some centres undefined), the TGI is > 100 µM.
